# From the supplement of paper PMC8728848
# Some of the results follow.
# B1: Gal 1 (Mus musculus), P16045 (protein)
# chain: MACGLVASNLNLKPGECLKVRGEVASDAKSFVLNLGKDSNNLCLHFNPRFNAHGDANTIVCNTKEDGTWGTEHREPAFPFQPGSITEVCITFDQADLTIKLPDGHEFKFPNRLNMEAINYMAADGDFKIKCVAFE
# Experiments:
# Assay in all cases: glycan array binding signal (z-score within array); higher = stronger binding
# Details in all cases: glycan notation: IUPAC condensed, linker removed
# [1] = target: Neu5Ac(a2-3)Gal(b1-4)GlcNAc(b1-2)[Neu5Ac(a2-3)Gal(b1-4)GlcNAc(b1-4)]Man(a1-3)[GlcNAc(b1-4)][Neu5Ac(a2-3)Gal(b1-4)GlcNAc(b1-4)Man(a1-6)]Man(b1-4)GlcNAc(b1-4)GlcNAc
# Procedure, shortened: (§1)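 Columns mapping to the same glycan were averaged after glycan names were converted to IUPAC-condensed notation. The data come from 3228 arrays in the Consortium for Functional Glycomics database, limited to those with an available protein sequence. Binding is reported as a within-array Z-score averaged across arrays of one protein sequence and across linkers.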
# [2] = target: Neu5Ac(a2-3)Gal(b1-4)GlcNAc(b1-2)[Neu5Ac(a2-3)Gal(b1-4)GlcNAc(b1-6)]Man(a1-6)[Neu5Ac(a2-3)Gal(b1-4)GlcNAc(b1-2)Man(a1-3)]Man(b1-4)GlcNAc(b1-4)GlcNAc
# Procedure, shortened: as §1
# [3] = target: Neu5Ac(a2-3)Gal(b1-4)GlcNAc(b1-2)[Neu5Ac(a2-3)Gal(b1-4)GlcNAc(b1-6)]Man(a1-6)[Neu5Ac(a2-3)Gal(b1-4)GlcNAc(b1-2)Man(a1-3)][GlcNAc(b1-4)]Man(b1-4)GlcNAc(b1-4)GlcNAc
# Procedure, shortened: as §1
# [4] = target: Neu5Ac(a2-3)Gal(b1-4)GlcNAc(b1-3)Gal
# Procedure, shortened: as §1
# [5] = target: Neu5Ac(a2-3)Gal(b1-4)GlcNAc(b1-3)Gal(b1-3)GlcNAc
# Procedure, shortened: as §1
# [6] = target: Neu5Ac(a2-3)Gal(b1-4)GlcNAc(b1-3)Gal(b1-4)GlcNAc
# Procedure, shortened: as §1
# [7] = target: Neu5Ac(a2-3)Gal(b1-4)GlcNAc(b1-3)Gal(b1-4)GlcNAc(b1-2)Man(a1-3)[Neu5Ac(a2-3)Gal(b1-4)GlcNAc(b1-3)Gal(b1-4)GlcNAc(b1-2)Man(a1-6)]Man(b1-4)GlcNAc(b1-4)GlcNAc
# Procedure, shortened: as §1
# [8] = target: Neu5Ac(a2-3)Gal(b1-4)GlcNAc(b1-3)Gal(b1-4)GlcNAc(b1-3)Gal(b1-4)GlcNAc
# Procedure, shortened: as §1
# [9] = target: Neu5Ac(a2-3)Gal(b1-4)GlcNAc(b1-3)Gal(b1-4)GlcNAc(b1-3)Gal(b1-4)GlcNAc(b1-2)Man(a1-3)[Neu5Ac(a2-3)Gal(b1-4)GlcNAc(b1-3)Gal(b1-4)GlcNAc(b1-3)Gal(b1-4)GlcNAc(b1-2)Man(a1-6)]GalNAc
# Procedure, shortened: as §1
# [10] = target: Neu5Ac(a2-3)Gal(b1-4)GlcNAc(b1-3)Gal(b1-4)GlcNAc(b1-3)GalNAc
# Procedure, shortened: as §1
# [11] = target: Neu5Ac(a2-3)Gal(b1-4)GlcNAc(b1-3)Gal(b1-4)GlcNAc(b1-3)[Neu5Ac(a2-3)Gal(b1-4)GlcNAc(b1-3)Gal(b1-4)GlcNAc(b1-6)]GalNAc
# Procedure, shortened: as §1
# [12] = target: Neu5Ac(a2-3)Gal(b1-4)GlcNAc(b1-3)Gal(b1-4)GlcNAc(b1-6)[Gal(b1-3)]GalNAc
# Procedure, shortened: as §1
# [13] = target: Neu5Ac(a2-3)Gal(b1-4)GlcNAc(b1-3)Gal(b1-4)[Fuc(a1-3)]GlcNAc
# Procedure, shortened: as §1
# [14] = target: Neu5Ac(a2-3)Gal(b1-4)GlcNAc(b1-3)GalNAc
# Procedure, shortened: as §1
# [15] = target: Neu5Ac(a2-3)Gal(b1-4)GlcNAc(b1-3)[Neu5Ac(a2-3)Gal(b1-4)GlcNAc(b1-6)]GalNAc
# Procedure, shortened: as §1
# [16] = target: Neu5Ac(a2-3)Gal(b1-4)GlcNAc(b1-6)GalNAc
# Procedure, shortened: as §1
# [17] = target: Neu5Ac(a2-3)Gal(b1-4)GlcNAc(b1-6)[Gal(b1-3)]GalNAc
# Procedure, shortened: as §1
# [18] = target: Neu5Ac(a2-3)Gal(b1-4)GlcNAc(b1-6)[Neu5Ac(a2-3)Gal(b1-3)]GalNAc
# Procedure, shortened: as §1
# [19] = target: Neu5Ac(a2-3)Gal(b1-4)GlcNAc6S
# Procedure, shortened: as §1
# [20] = target: Neu5Ac(a2-3)Gal(b1-4)[Fuc(a1-3)]GlcNAc
# Procedure, shortened: as §1
# [21] = target: Neu5Ac(a2-3)Gal(b1-4)[Fuc(a1-3)]GlcNAc(b1-2)Man
# Procedure, shortened: as §1
# [22] = target: Neu5Ac(a2-3)Gal(b1-4)[Fuc(a1-3)]GlcNAc(b1-3)Gal
# Procedure, shortened: as §1
# [23] = target: Neu5Ac(a2-3)Gal(b1-4)[Fuc(a1-3)]GlcNAc(b1-3)Gal(b1-4)GlcNAc
# Procedure, shortened: as §1
# [24] = target: Neu5Ac(a2-3)Gal(b1-4)[Fuc(a1-3)]GlcNAc(b1-3)Gal(b1-4)[Fuc(a1-3)]GlcNAc(b1-3)Gal(b1-4)[Fuc(a1-3)]GlcNAc
# Procedure, shortened: as §1
# [25] = target: Neu5Ac(a2-3)Gal(b1-4)[Fuc(a1-3)]GlcNAc(b1-3)GalNAc
# Procedure, shortened: as §1
# [26] = target: Neu5Ac(a2-3)Gal(b1-4)[Fuc(a1-3)]GlcNAc(b1-6)[Gal(b1-3)]GalNAc
# Procedure, shortened: as §1
# [27] = target: Neu5Ac(a2-3)Gal(b1-4)[Fuc(a1-3)]GlcNAc(b1-6)[Neu5Ac(a2-3)Gal(b1-3)]GalNAc
# Procedure, shortened: as §1
# [28] = target: Neu5Ac(a2-3)Gal(b1-4)[Fuc(a1-3)]GlcNAc6S
# Procedure, shortened: as §1
# [29] = target: Neu5Ac(a2-3)Gal6S(b1-4)GlcNAc
# Procedure, shortened: as §1
# [30] = target: Neu5Ac(a2-3)Gal6S(b1-4)[Fuc(a1-3)]GlcNAc
# Procedure, shortened: as §1
# Neu5Ac(a2-3)GalNAc = target: Neu5Ac(a2-3)GalNAc
# Procedure, shortened: as §1
# [31] = target: Neu5Ac(a2-3)GalNAc(b1-4)GlcNAc
# Procedure, shortened: as §1
# [32] = target: Neu5Ac(a2-3)[GalNAc(b1-4)]Gal(b1-4)Glc
# Procedure, shortened: as §1
# [33] = target: Neu5Ac(a2-3)[GalNAc(b1-4)]Gal(b1-4)GlcNAc
# Procedure, shortened: as §1
# [34] = target: Neu5Ac(a2-3)[GalNAc(b1-4)]Gal(b1-4)GlcNAc(b1-3)GalNAc
# Procedure, shortened: as §1
# [35] = target: Neu5Ac(a2-3)[Neu5Ac(a2-6)]GalNAc
# Procedure, shortened: as §1
binder,measurement,setting,value
B1,glycan array binding signal (z-score),[1],0.616
same,glycan array binding signal (z-score),[2],0.153
same,glycan array binding signal (z-score),[3],-0.097
same,glycan array binding signal (z-score),[4],-0.337
same,glycan array binding signal (z-score),[5],-0.268
same,glycan array binding signal (z-score),[6],-0.17
same,glycan array binding signal (z-score),[7],1.31
same,glycan array binding signal (z-score),[8],0.012
same,glycan array binding signal (z-score),[9],2.5
same,glycan array binding signal (z-score),[10],-0.199
same,glycan array binding signal (z-score),[11],0.372
same,glycan array binding signal (z-score),[12],0.131
same,glycan array binding signal (z-score),[13],-0.268
same,glycan array binding signal (z-score),[14],-0.188
same,glycan array binding signal (z-score),[15],-0.219
same,glycan array binding signal (z-score),[16],-0.118
same,glycan array binding signal (z-score),[17],-0.328
same,glycan array binding signal (z-score),[18],-0.052
same,glycan array binding signal (z-score),[19],-0.198
same,glycan array binding signal (z-score),[20],-0.287
same,glycan array binding signal (z-score),[21],-0.196
same,glycan array binding signal (z-score),[22],-0.286
same,glycan array binding signal (z-score),[23],-0.283
same,glycan array binding signal (z-score),[24],-0.083
same,glycan array binding signal (z-score),[25],-0.23
same,glycan array binding signal (z-score),[26],-0.312
same,glycan array binding signal (z-score),[27],-0.171
same,glycan array binding signal (z-score),[28],-0.295
same,glycan array binding signal (z-score),[29],-0.411
same,glycan array binding signal (z-score),[30],-0.29
same,glycan array binding signal (z-score),Neu5Ac(a2-3)GalNAc,-0.44
same,glycan array binding signal (z-score),[31],-0.439
same,glycan array binding signal (z-score),[32],-0.315
same,glycan array binding signal (z-score),[33],-0.266
same,glycan array binding signal (z-score),[34],0.377
same,glycan array binding signal (z-score),[35],-0.3
